In the supplement of paper PMC4967469:
A lower IC50 marks a more sensitive line; a limit (>, <) means that the fit lies beyond the doses tested. AUC, from the same fit, is the share of area under the viability curve across the 256-fold dose range; it is 1 without any effect and falls as sensitivity rises. For some assays here: The top dose, if marked as inferred, is not printed in the source and was worked back from the curve model. For some assays here: Drugs with an entry number were screened twice under separate entries, and the two screens often disagree.

Experiments:
Assay in all cases: Viability of human cancer cell lines after 72 h of drug (GDSC screen)
[1] = compound: Oc1cccc(-c2nc(N3CCOCC3)c3oc4ncccc4c3n2)c1 [PI-103]; conditions: top dose 10.24 µM
Experimental: (§1)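 Human cancer cell lines in 384-well plates, medium with 10% serum, drug for 72 h over a 256-fold dose range (nine 2-fold or five 4-fold steps up to the top dose). Adherent lines were fixed and stained with the nucleic acid dye Syto60, suspension lines read with resazurin; signal relative to control wells, capped at 0 and 100%. One two-parameter sigmoid per drug and line, fitted in a mixed model over all curves with the slope shared within a line.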

[2] = compound: O=C(NCCCNc1nc(Nc2cccc(NC(=O)N3CCCC3)c2)ncc1I)c1cccs1 [BX-795]; conditions: top dose 5 µM; top dose inferred
Experimental: as §1

[3] = compound: COc1cc2c(NC3CCN(C(C)C)CC3)nc(C3CCCCC3)nc2cc1OCCCN1CCCC1 [UNC0638]
Experimental: as §1

[4] = compound: CCn1c(-c2nonc2N)nc2c(C#CC(C)(C)O)ncc(OC[C@H]3CCCNC3)c21 [GSK690693]; conditions: top dose 10.24 µM; top dose inferred
Experimental: as §1

[5] = compound: Cc1cccc(-c2[nH]c(C(C)(C)C)nc2-c2ccc3c(c2)OCO3)n1 [SB-505124]; conditions: top dose 10 µM; top dose inferred
Experimental: as §1

[6] = top dose 20 µM, screen: GDSC drug entry 1236, top dose inferred
[7] = top dose 40 µM, screen: GDSC drug entry 245

Cell Line | AUC [1] | IC50 [1] | AUC [2] | IC50 [2] | AUC [3, 6] | IC50 [3, 6] | AUC [3, 7] | IC50 [3, 7] | AUC [4] | IC50 [4] | AUC [5] | IC50 [5]
786-0 (kidney, adherent) | 0.262 | 0.143 µM | 0.895 | > 5 µM | 0.78 | 7.55 µM | 0.638 | 5.79 µM | 0.606 | 1.22 µM | 0.977 | > 10 µM
A172 (glioma, adherent) | 0.972 | > 10.2 µM | 0.833 | 3.05 µM | 0.825 | 11.4 µM | 0.783 | 16.1 µM | 0.989 | > 10.2 µM | 0.97 | > 10 µM
A427 (non-small cell lung carcinoma, adherent) | 0.971 | > 10.2 µM | 0.778 | 2.05 µM | 0.817 | 11.4 µM | 0.868 | 37.1 µM | 0.987 | > 10.2 µM | 0.964 | > 10 µM
A549 (lung adenocarcinoma, adherent) |  |  | 0.744 | 1.74 µM | 0.973 | > 20 µM |  |  |  |  | 0.957 | > 10 µM
A673 (rhabdomyosarcoma, adherent) | 0.732 | 2.69 µM | 0.979 | > 5 µM | 0.522 | 1.43 µM | 0.986 | > 40 µM | 0.99 | > 10.2 µM | 0.92 | > 10 µM
BCPAP (thyroid, adherent) | 0.734 | 2.75 µM | 0.804 |  | 0.704 | 4.4 µM | 0.655 | 6.41 µM | 0.987 | > 10.2 µM | 0.95 | > 10 µM
BHY (head and neck, adherent) | 0.558 | 0.924 µM | 0.882 | > 5 µM | 0.948 | > 20 µM | 0.832 | 25.8 µM | 0.968 | > 10.2 µM | 0.971 | > 10 µM
BPH-1 (prostate, adherent) | 0.254 | 0.116 µM | 0.792 | 2.54 µM | 0.822 | 13.3 µM | 0.697 | 9.52 µM | 0.814 | 6.36 µM | 0.852 | 9.07 µM
CAL-27 (head and neck, adherent) | 0.707 | 2.48 µM | 0.873 | 4.97 µM | 0.889 | > 20 µM | 0.856 | 33.2 µM | 0.983 | > 10.2 µM | 0.903 | > 10 µM
CAL-33 (head and neck, adherent) | 0.463 | 0.509 µM | 0.841 | 3.48 µM | 0.872 | 19 µM | 0.965 | > 40 µM | 0.935 | > 10.2 µM | 0.94 | > 10 µM
CAL-54 (kidney, adherent) | 0.956 | > 10.2 µM | 0.956 | > 5 µM | 0.983 | > 20 µM | 0.966 | > 40 µM | 0.985 | > 10.2 µM | 0.907 | > 10 µM
CHP-134 (neuroblastoma, suspension) | 0.521 | 0.739 µM | 0.756 | 2.13 µM |  |  | 0.604 | 5.22 µM | 0.926 | > 10.2 µM |  | 
CHP-212 (neuroblastoma, adherent) | 0.936 | > 10.2 µM | 0.638 | 0.73 µM | 0.937 | > 20 µM | 0.875 | 34.2 µM | 0.988 | > 10.2 µM | 0.987 | > 10 µM
ChaGo-K-1 (non-small cell lung carcinoma, adherent) | 0.944 | > 10.2 µM | 0.972 | > 5 µM | 0.881 | > 20 µM | 0.875 | > 40 µM | 0.97 | > 10.2 µM | 0.974 | > 10 µM
DOK (head and neck, adherent) | 0.79 | 7.37 µM | 0.8 | 4.02 µM | 0.936 | > 20 µM | 0.975 | > 40 µM | 0.957 | > 10.2 µM | 0.956 | > 10 µM
DU-145 (prostate, adherent) | 0.86 | > 10.2 µM | 0.984 | > 5 µM | 0.982 | > 20 µM | 0.93 | > 40 µM | 0.985 | > 10.2 µM | 0.959 | > 10 µM
GAMG (glioma, adherent) | 0.286 | 0.153 µM | 0.794 | 2.43 µM | 0.928 | > 20 µM | 0.73 | 11.7 µM | 0.812 | 5.81 µM | 0.969 | > 10 µM
H2591 (mesothelioma, adherent) | 0.972 | > 10.2 µM | 0.884 | > 5 µM | 0.822 | 16.6 µM | 0.744 | 15.8 µM | 0.982 | > 10.2 µM | 0.98 | > 10 µM
HCC1806 (breast, adherent) | 0.96 | > 10.2 µM | 0.943 | > 5 µM | 0.816 | 9.99 µM | 0.772 | 14.2 µM | 0.97 | > 10.2 µM | 0.988 | > 10 µM
HCT-116 (large intestine, adherent) | 0.488 | 0.594 µM | 0.881 | 4.79 µM | 0.793 | 8.59 µM | 0.747 | 12.2 µM | 0.946 | > 10.2 µM | 0.971 | > 10 µM
HLE (liver, adherent) | 0.898 | > 10.2 µM | 0.876 | 4.49 µM | 0.903 | > 20 µM | 0.787 | 16.3 µM | 0.987 | > 10.2 µM | 0.982 | > 10 µM
HT-29 (large intestine, adherent) | 0.973 | > 10.2 µM | 0.988 | > 5 µM | 0.75 | 6.54 µM | 0.657 | 6.81 µM | 0.969 | > 10.2 µM | 0.986 | > 10 µM
HeLa (cervix, adherent) |  |  | 0.892 | > 5 µM | 0.971 | > 20 µM | 0.88 | 38.2 µM | 0.987 | > 10.2 µM | 0.903 | > 10 µM
